# Experimental data as given in PubChem BioAssay AID2675 (National Center for Advancing Translational Sciences (NCATS), 2010).
# The campaign covered roughly 280,000 compounds. About 100 (0.036%) were called active. The shares of active, inactive and inconclusive entries below differ from those in the screen. The call rests on the fitted dose curve; in most records, active means well fitted inhibition curve with a large enough effect in the signal ratio, with a control signal flat (not every such curve was filed as active); inconclusive means small, poorly fitted or top-dose-only effect, or effect the other way, or a change in a side signal; inactive means no such curve, though single readings can be large or run the other way; the % refers to the signal ratio. Potencies of inconclusive entries are doubtful fits and often do not repeat. A note “side channel” means that the fit belongs to a control or component signal, not to the main read-out.
# Target: Muscleblind-like protein 1 (Homo sapiens) (UniProt Q9NR56)
# Sequence of UniProt Q9NR56 (Q9NR56 whole entry, looked up): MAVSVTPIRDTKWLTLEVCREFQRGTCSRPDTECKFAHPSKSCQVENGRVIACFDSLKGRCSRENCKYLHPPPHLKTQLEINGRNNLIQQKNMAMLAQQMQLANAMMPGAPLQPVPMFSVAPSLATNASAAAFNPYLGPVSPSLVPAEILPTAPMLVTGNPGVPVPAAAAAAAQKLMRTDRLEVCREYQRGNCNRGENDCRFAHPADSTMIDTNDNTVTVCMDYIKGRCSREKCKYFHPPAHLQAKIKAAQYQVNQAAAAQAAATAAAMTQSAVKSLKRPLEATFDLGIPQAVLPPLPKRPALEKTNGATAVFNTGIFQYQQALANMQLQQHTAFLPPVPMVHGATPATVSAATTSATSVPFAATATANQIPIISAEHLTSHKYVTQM
# Experiment: qHTS Assay for Inhibitors of MBNL1-poly(CUG) RNA binding
# Settings: TR-FRET MBNL1-His/biotin-(CUG)12 binding, 665/545 ratio; series mostly up to 57.5 µM
# In short: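 Compounds (final 92 nM to 58 uM) are added to His-tagged MBNL1 and biotin-(CUG)12, then terbium anti-His antibody and streptavidin-XL665 (5 nM final). After 60 min at room temperature, the 665/545 nm ratio is read.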
# Potency means the concentration at half of the fitted maximal effect; tags describe the fitted curve by direction and shape or compound fluorescence and quenching.
row,SMILES,Potency
1,Cc1nc2ccc([N+](=O)[O-])cc2[nH]1,"inconclusive: 15.8 µM [quencher, side channel, partial curve]"
2,Cc1ccc(Sc2nnc(Cc3ccccc3)c3ccccc23)cc1,inactive
3,O=C(Cn1nc(C(F)(F)F)c2c1CCC2)NCc1ccc(Cl)cc1,"inconclusive: 3.16 µM [fluorescent, side channel, partial curve]"
4,CC(=O)c1cccc(NC(=O)c2ccc3c(c2)C(=O)N(Cc2cccnc2)C3=O)c1,"inconclusive: 2.51 µM [quencher, side channel, full curve]"
5,CCC1CCC2(CC1)NNC(=S)NN2,"inconclusive: 28.2 µM [quencher, side channel, single point]"
6,COc1ccc2nc(SCC(=O)Nc3ccc(S(=O)(=O)N4CCCC4)cc3)c(C#N)cc2c1,"inconclusive: 39.8 µM [fluorescent, side channel, single point]"
7,CC1CC(C)CN(C(=O)c2ccc(N3CC4CC(C3)c3cccc(=O)n3C4)c([N+](=O)[O-])c2)C1 (centres undefined),"inconclusive: 3.16 µM [quencher, side channel, partial curve, poor fit]"
8,O=C(CSc1ncnc2nc[nH]c12)c1ccc2ccccc2c1,"inconclusive: 10 µM [quencher, side channel, partial curve]"
9,CC(C)(C)c1ccc(C(=O)NC(=S)N2CCCCCC2)cc1,inactive
10,CN1C(=O)/C(=C2\SC(N)=NC2=O)c2ccccc21,"inconclusive: 3.55 µM [quencher, side channel, single point]"
11,CC1CCCC(N2CCN(C(=O)c3ccc([N+](=O)[O-])cc3)CC2)C1 (centres undefined),"inconclusive: 12.6 µM [quencher, side channel, partial curve]"
12,CCOC(=O)/C(C#N)=C/c1ccc(N2CCCCC2)cc1,"inconclusive: 14.1 µM [quencher, side channel, partial curve]"
13,COc1ccc2ccccc2c1C1CC(=O)N2CN(C)CSC2=C1C#N (centres undefined),inactive
14,O=C(CSc1ccc2ccccc2n1)Nc1nsc(-c2ccc(Cl)cc2)n1,"inconclusive: 7.08 µM [fluorescent, side channel, partial curve]"
15,O=C(c1ccc(S(=O)(=O)Nc2ccccc2)cc1)N1CCCCCCC1,"inconclusive: 10 µM [quencher, side channel, partial curve]"
16,CC1Cc2c([nH]c3ccccc23)C(=O)N1 (centres undefined),"inconclusive: 39.8 µM [quencher, side channel, single point]"
17,CSc1nc(-c2ccc(Cl)cc2)nn1S(=O)(=O)c1ccc(Cl)cc1,inactive
18,NC(=O)COC(=O)c1ccc2noc(-c3ccccc3)c2c1,"inconclusive: 14.1 µM [quencher, side channel, partial curve]"
19,CCC(C)(C)NC(=O)CN(C(=O)c1snc(C(N)=O)c1N)c1ccc2c(c1)OCO2,"inconclusive: 17.8 µM [quencher, side channel, partial curve]"
20,CCN1CCN(CCCNC(=O)c2cc3c(=O)oc4ccc(C)cc4c3s2)CC1,"inconclusive: 12.6 µM [quencher, side channel, partial curve]"

row,SMILES,Potency
1,Cc1cc(=O)n(CC(=O)O)c2ccccc12,inactive
2,Cc1cc(C)nc(SCc2ccc(C(=O)N/N=C/c3ccco3)cc2)n1,"inconclusive: 31.6 µM [quencher, side channel, single point]"
3,Cc1ccccc1-c1nc(CN2CCC(C(=O)NCCN3CCOCC3)CC2)c(C)o1,"inconclusive: 39.8 µM [fluorescent, side channel, single point]"
4,CCOc1cc(/C=C2\N=C3CCCCCN3C2=O)ccc1O,"inconclusive: 15.8 µM [quencher, side channel, partial curve]"
5,CC(=O)Nc1sc(N/N=C\c2ccco2)nc1-c1cccs1,"inconclusive: 3.16 µM [quencher, side channel, single point]"
6,CCOC(=O)Cc1csc(NC(=O)C(C)c2ccc([N+](=O)[O-])cc2)n1 (centres undefined),"inconclusive: 17.8 µM [quencher, side channel, partial curve]"
7,Oc1oc(-c2ccccc2)nc1C=NCc1ccccc1,"inconclusive: 14.1 µM [quencher, side channel, partial curve]"
8,Cc1c(CCOC(=O)c2cc([N+](=O)[O-])cc([N+](=O)[O-])c2)sc[n+]1CC(=O)c1ccccc1,"inconclusive: 12.6 µM [quencher, side channel, partial curve]"
9,N#C/C(=C/c1ccc(N2CCOCC2)o1)C(=O)Nc1ccccc1,"inconclusive: 10 µM [quencher, side channel, partial curve]"
10,O=C(Nc1ccnn1C1CCN(Cc2ccc3nonc3c2)CC1)c1cccc(F)c1,"inconclusive: 12.6 µM [quencher, side channel, partial curve]"
11,CCn1nc(NC(=O)c2ccco2)c2cc3ccccc3nc21,"inconclusive: 17.8 µM [quencher, partial curve]"
12,O=c1[nH]c(-c2ccccn2)nc2sc(-c3ccccc3)cc12,"inconclusive: 20 µM [quencher, side channel, partial curve]"
13,CCN(CC)CCNC(=O)c1ccc2c(c1NCCO)C(=O)c1ccccc1C2=O,"inconclusive: 12.6 µM [quencher, side channel, partial curve]"
14,CN(C)c1ccc(NC(=O)CN2CCC(C(=O)c3ccc(F)cc3)CC2)cc1,inactive
15,COc1ccc(NC(=O)CSc2nnc(Cc3cccn3C)n2CCc2ccccc2)c(OC)c1,inactive
16,Clc1ccccc1-c1ccc(/C=N/n2cnnc2)o1,"inconclusive: 15.8 µM [quencher, side channel, partial curve]"
17,CC(=O)Nc1ccc(C(=O)CSc2ncn(-c3ccccc3)n2)cc1,inactive
18,Cn1c(SCC(=O)NNC(=S)Nc2ccccc2)nnc1-c1ccccc1,inactive
19,O=C(CSc1cccc2cccnc12)Nc1cc(C(=O)O)cc(C(=O)O)c1,"inconclusive: 28.2 µM [quencher, side channel, single point]"
